Measurements taken from the supplement of paper PMC11417369.
± gives the standard deviation of the averaged measurements. The list shows a part of the results.

system: PfAP2-EXP AP2 domain (GST-tagged); assay: gcPBM binding intensity (ln(normalized median fluorescence intensity)); higher = stronger DNA binding
In short: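 Binding of GST-tagged P. falciparum DNA-binding domains, expressed in E. coli and used at about 25 μg on average, was carried out for 1 h in 1× PBS containing 1% milk, 0.2 mg/ml BSA, 0.5% salmon testes DNA and 0.03% Triton X-100. The target was an Agilent 4 × 180k array of primer-extended double-stranded 36-bp intergenic genomic probes plus negative controls, read with Alexa488 anti-GST antibody at 488 nm. Binding intensity is the highest Masliner-normalised natural-log median intensity across replicate spots of either probe orientation.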

Sequence	gcPBM binding intensity (ln)
ATTATAATTTTGTAAAGTACATATTATTATATATTA [XGTACX_site7191]	8.04 ± 0.31
AAGGTAAAATATAAGTGTACTTTTTCTTAATCTTCG [XGTACX_site514]	8.31 ± 0.15
ATACACAAATGCATACGTACATATATATATATATAT [XGTACX_site3504]	10.2 ± 0.33
ATGTAATATGTTCATGCATGTAAAATTACATTTAGA [TGCATGCA_site852]	9.01 ± 0.3
TAAAACAAAATAACATGTACAAAAAAAAAAAAAAAA [XGTACX_site2915]	8.2 ± 0.49
AAAAAAAAAAAAACAACACACAATGTTTTATTTTAC [CACACA_site1613]	8.31 ± 0.32
CATATAAGAATCTTCTGTACTTATAAGAAAAGACAT [XGTACX_site8135]	8.61 ± 0.3
ATATCTATAATAAACACACAAATAGATATAACATAT [CACACA_site7702]	8.87 ± 0.41
AAAAAAAAATTAAAAACACACATATATATATATATA [CACACA_site1580]	10.2 ± 0.39
AAAATTTAATATGAATGTACATAAAAAAAAAAAAAA [XGTACX_site6719]	8.54 ± 0.66
TAAGTATATTTCTGCACACAAAAAAAAAAACCAAAA [CACACA_site4056]	8.46 ± 0.43
TATAAATAAAGACTTTTTTCTAACTTTTTTTTGTAT [CACACA_negctrl_site1015]	8.43 ± 0.49
TATATATATATATATGTGCACATTTATTGCCTTTGC	10.1 ± 0.52
AATTTGAATATTTGATGTACAAAGTTTTTTAATGTT [XGTACX_site3249]	8.24 ± 0.25
TACCCACTAAAATACACACACACACCCACATATATA [CACACA_site6141]	8.74 ± 0.63
TCTTACACTAATAAATGTACATACAAAAAATCTATT [XGTACX_site1379]	8.52 ± 0.35
ATAAATATAACATATTGTACCCTTAAAAAGGAACAA [XGTACX_site352]	8.19 ± 0.11
AAATGTATAATTTTTTAATACACTTATTTAAAATAA [CACACA_negctrl_site797]	8.05 ± 0.31
GAGAGGATAGTTCACAGTACCCAGTAACTCTACGGA [XGTACX_site4876]	8.56 ± 0.49
GTACCAACAGCACTACTTCTCGCCATTTTCTTGTAG [XGTACX_negctrl_site97]	9.15 ± 0.42
CTCAAATAACTTTTTACACACATTATTTGAAATAAG [CACACA_site6722]	8.53 ± 0.41
CAGAATACATACATTACACACAAATTTAAGTATATA [CACACA_site1781]	8.31 ± 0.51

Sequence	gcPBM binding intensity (ln)
ATATGAATGATCGTACGTACTTACATATTTATAAAG [XGTACX_site8041]	8.6 ± 0.41
TATGAGAACAAACATTGTACAATAAAAAGTAGATAT [XGTACX_site920]	9.34 ± 0.33
ACAAATAAAAAAATTACACACATATAAAATATAGAT [CACACA_site6756]	8.43 ± 0.41
AATACATGAACTTAAAGTACTAAAAAAAAAATAATA [XGTACX_site1956]	8.69 ± 0.38
AGGAAAATAATTAAAGCATGCTCATTATGAAATATA [TGCATGCA_site855]	8.72 ± 0.42
AACCCTTTTGATTTTTCTTTTTTTTTTTTTTTAAAT [CACACA_negctrl_site1667]	8.32 ± 0.59
CATATAAGACAAAAGGTGCAATTTTAATGCTTTTAT [GTGCAC_site9432]	8.56 ± 0.24
TAGTAAAATGGAACACGTACATATATCTATGTATAA [XGTACX_site6103]	8.62 ± 0.43
ACAGTTTGTCTGAGTAGTACATAAATACTTGAAAGG [XGTACX_site7792]	8.62 ± 0.31
AGAAGGATATTATGAAGTACACATATTGTATATGGT [XGTACX_site7503]	8.47 ± 0.35
CCATATATAATGACATGTACTCAAAAAAAAAAAAAA [XGTACX_site685]	8.41 ± 0.44
TTTCAAGGATTTAATTTATGGAAACCTTCTTCATTT [GTGCAC_negctrl_site504]	8.35 ± 0.42
TAATTCAAACGTGTATGTATATTACTCGAAGAAATA [CACACA_negctrl_site1779]	8.29 ± 0.36
ATACATATATATATATGTACATATATTTATATTTAT [XGTACX_site3155]	8.39 ± 0.36
TTTCTCTTTTTTTGGGGTACAACCAATCCTATAATA [XGTACX_site297]	8.82 ± 0.43
TTTTTAAAAAAAAATAGAGAGTCAAAGTATGTGGCG [CACACA_negctrl_site194]	8.63 ± 0.18
TAAAAAAAGAGATATTGTACACAAAAAAATTTTACT [XGTACX_site1342]	8.62 ± 0.43
AAGTTCAAAATAAATGGTACAGAAGTATATATATCA [XGTACX_site174]	8.67 ± 0.47
TAGAAAAAAAAATACATACACACAATATATTTATTT [CACACA_site3123]	8.23 ± 0.37
AAAATCTAGGTATTTATACACACTAATATAATATAC [CACACA_site8108]	8.47 ± 0.36
TATATATTTGTGAAAATATTAAAATAAATAAATAAA [CACACA_negctrl_site295]	8.37 ± 0.36
ATATATATATATATATGTACATAATTAATAATTAGA [XGTACX_site5672]	10.3 ± 0.25
